These results are taken from the antibiotic and cytotoxicity screens of Wong et al. (2023).

The subject of one experiment is HSkMC. Put plainly: cytotoxicity call (relative viability < 0.9). Particulars: 10 µM.
The next experiment deals with HepG2. Put plainly: cytotoxicity call (relative viability < 0.9). The note with it: 10 µM.
Another experiment relates to S. aureus RN4220. Put plainly: growth inhibition call (relative growth <= 0.2). Particulars: 50 µM.

Molecules are shown by their SMILES. The list shows a part of the results.

For the compound `C[C@@H]1CCCCO[C@H](CN(C)Cc2ccc(C(F)(F)F)cc2)[C@@H](C)CN([C@H](C)CO)C(=O)c2cc(NC(=O)Cc3ccccc3)ccc2O1`, the cytotoxicity call with HSkMC and in the experiment with HepG2 was “inactive” in each case. For the same compound, the growth inhibition call with S. aureus RN4220 is “inactive”.

For the compound `COc1cccc(-c2ccc3c(c2)O[C@H](CN(C)Cc2cncnc2)[C@H](C)CN([C@@H](C)CO)S3(=O)=O)c1`, the cytotoxicity call with HSkMC and in the experiment with HepG2 was “inactive” throughout. Further, the growth inhibition call in the experiment with S. aureus RN4220 was “inactive”.

Turning to `C[C@@H]1CN([C@@H](C)CO)C(=O)c2cccc(NC(=O)c3ccncc3)c2O[C@H]1CN(C)Cc1ccc(Oc2ccccc2)cc1`, the cytotoxicity call with HSkMC and in the experiment on HepG2 was “inactive” throughout. Moreover, the growth inhibition call in the experiment on S. aureus RN4220 is “inactive”.

As to `C[C@@H]1CCCCO[C@@H](CN(C)Cc2ccc(Cl)c(Cl)c2)[C@@H](C)CN([C@@H](C)CO)C(=O)c2cc(NC(=O)Nc3ccc(C(F)(F)F)cc3)ccc2O1`, the cytotoxicity call in the experiment on HSkMC and with HepG2 was “inactive” in each case. In addition, the growth inhibition call in the experiment with S. aureus RN4220 was “inactive”.

For `COc1ccc(NC(=O)N(C)C[C@@H]2OCc3ccccc3-c3c(n(C)c4ccccc34)C(=O)N([C@@H](C)CO)C[C@H]2C)cc1`, the cytotoxicity call with HSkMC and in the experiment on HepG2 was “inactive” in each case. Moreover, the growth inhibition call in the experiment on S. aureus RN4220 was “inactive”.

For the compound `Cc1ccc([C@@H](N)c2ccncc2)cc1`, the cytotoxicity call in the experiment on HSkMC and with HepG2 was “inactive” each time. Further, in the experiment on S. aureus RN4220, the growth inhibition call was “inactive”.

For `CC1=C(C(=O)O)N2C(=O)C(NC(=O)C(N)c3ccc(O)cc3)C2SC1` (stereo not drawn), the cytotoxicity call in the experiment on HSkMC and with HepG2 was “inactive” throughout. For the same compound, the growth inhibition call in the experiment with S. aureus RN4220 was “inactive”.

Consider `C[C@H](CO)N1C[C@H](C)[C@H](CN(C)Cc2ccc(Oc3ccccc3)cc2)Oc2c(NC(=O)NC3CCCCC3)cccc2C1=O`, for which the cytotoxicity call with HSkMC was “inactive”. In the experiment with HepG2, the cytotoxicity call is “active”. Besides, the growth inhibition call with S. aureus RN4220 was “inactive”.

On to `COCC(=O)Nc1ccc2c(c1)C(=O)N(C)[C@@H]1CC[C@@H](CC(=O)N3CCc4ccccc4C3)O[C@H]1CO2`, for which the cytotoxicity call with HSkMC and in the experiment with HepG2 was “inactive” in each case. The growth inhibition call with S. aureus RN4220 was “inactive”.

Consider `C[C@@H]1CCCCO[C@H](CN(C)C(=O)Nc2ccc3c(c2)OCO3)[C@@H](C)CN([C@H](C)CO)C(=O)c2cc(NS(=O)(=O)c3ccc(F)cc3)ccc2O1`, for which the cytotoxicity call in the experiment with HSkMC and in the experiment with HepG2 was “inactive” throughout. The growth inhibition call in the experiment with S. aureus RN4220 was “inactive”.

For `O=C(O)c1cnc[nH]1`, the cytotoxicity call in the experiment with HSkMC and in the experiment with HepG2 was “inactive” each time. Also, the growth inhibition call in the experiment with S. aureus RN4220 was “inactive”.

Take `C[C@@H]1CN([C@H](C)CO)C(=O)c2cc(NC(=O)CCCCCC(=O)Nc3ccccc3N)ccc2O[C@H]1CN(C)S(=O)(=O)c1cn(C)cn1`: the cytotoxicity call in the experiment with HSkMC and in the experiment on HepG2 was “inactive” in each case. Also, the growth inhibition call in the experiment with S. aureus RN4220 is “inactive”.

As to `CN(C=O)CP(=O)(O)CN1CCCCC1`, the cytotoxicity call in the experiment on HSkMC and in the experiment with HepG2 was “inactive” each time. The growth inhibition call in the experiment on S. aureus RN4220 is “inactive”.

Turning to `C[C@@H]1CCCCO[C@H](CN(C)S(C)(=O)=O)[C@@H](C)CN([C@H](C)CO)C(=O)c2cc(NS(=O)(=O)c3ccccc3)ccc2O1`, the cytotoxicity call in the experiment on HSkMC and in the experiment with HepG2 was “inactive” each time. The growth inhibition call in the experiment with S. aureus RN4220 was “inactive”.

Consider `C[C@@H]1CCCCO[C@H](CN(C)C(=O)Cc2ccccc2)[C@@H](C)CN([C@@H](C)CO)C(=O)c2cc(NC(=O)c3ccccc3)ccc2O1`, for which the cytotoxicity call in the experiment with HSkMC and in the experiment on HepG2 was “inactive” each time. Besides, the growth inhibition call in the experiment on S. aureus RN4220 was “inactive”.

In the case of `Cc1cnc(C(=O)N2C[C@@H]3COC[C@@]3(CNS(C)(=O)=O)C2)cn1`, the cytotoxicity call in the experiment on HSkMC and in the experiment with HepG2 was “inactive” throughout. In the experiment with S. aureus RN4220, the growth inhibition call is “inactive”.

As to `O=C(O)/C=C/C(=O)NC1CC1`, the cytotoxicity call in the experiment with HSkMC and in the experiment on HepG2 was “inactive” each time. In addition, the growth inhibition call in the experiment with S. aureus RN4220 is “inactive”.

In the case of `C[C@@H]1CCCCO[C@@H](CN(C)Cc2ccc(C(F)(F)F)cc2)[C@H](C)CN([C@@H](C)CO)C(=O)c2cc(NC(=O)Nc3ccc4c(c3)OCO4)ccc2O1`, the cytotoxicity call with HSkMC is “inactive”. In addition, in the experiment with HepG2, the cytotoxicity call was “active”. Besides, the growth inhibition call in the experiment on S. aureus RN4220 was “inactive”.

On to `CCS(=O)(=O)Nc1ccc2c(c1)C(=O)N(C)C[C@@H](OC)[C@@H](C)CN(C(=O)c1ccc3c(c1)OCO3)[C@@H](C)CO2`, for which the cytotoxicity call with HSkMC and in the experiment on HepG2 was “inactive” each time. The growth inhibition call in the experiment with S. aureus RN4220 is “inactive”.

With `C[C@H](CO)N1C[C@H](C)[C@H](CN(C)Cc2ccncc2)Oc2ccc(NC(=O)Cn3cnnn3)cc2CC1=O`, the cytotoxicity call in the experiment on HSkMC and in the experiment on HepG2 was “inactive” each time. In the experiment with S. aureus RN4220, the growth inhibition call is “inactive”.

In the case of `C[C@@H]1CCCCO[C@@H](CN(C)S(=O)(=O)c2ccc(F)cc2)[C@@H](C)CN([C@@H](C)CO)C(=O)c2cc(NC(=O)Nc3ccc4c(c3)OCO4)ccc2O1`, the cytotoxicity call with HSkMC and with HepG2 was “inactive” throughout. The growth inhibition call in the experiment on S. aureus RN4220 is “inactive”.

Turning to `C[C@H](CO)N1C[C@H](C)[C@@H](CN(C)Cc2ccc3c(c2)OCO3)Oc2ccc(NC(=O)c3ccncc3)cc2CC1=O`, the cytotoxicity call in the experiment on HSkMC and in the experiment with HepG2 was “inactive” each time. The growth inhibition call in the experiment with S. aureus RN4220 is “inactive”.

Take `C[C@@H]1COC(=O)[C@H](CC(=O)OC(C)(C)C)CC=CC[C@@H](CC(=O)N[C@@H](CO)Cc2ccccc2)C(=O)N1`: the cytotoxicity call with HSkMC and with HepG2 was “inactive” in each case. Besides, the growth inhibition call in the experiment on S. aureus RN4220 was “inactive”.

Consider `Cn1c2c(c(=O)n(C)c1=O)/N=N\c1c(c(=O)n(C)c(=O)n1C)/N=N\2`, for which the cytotoxicity call in the experiment on HSkMC (human skeletal muscle cells) and in the experiment on HepG2 was “inactive” in each case. Also, the growth inhibition call in the experiment on S. aureus RN4220 is “inactive”.

Consider `CCNC(=O)CC[C@@H](N)C(=O)O`, for which the cytotoxicity call in the experiment with HSkMC and in the experiment with HepG2 was “inactive” in each case. For the same compound, the growth inhibition call in the experiment with S. aureus RN4220 is “inactive”.

For the compound `C[C@H]1CN([C@@H](C)CO)C(=O)c2cccc(NS(=O)(=O)c3ccc(F)cc3)c2O[C@H]1CN(C)C(=O)Nc1ccc(C(F)(F)F)cc1`, the cytotoxicity call in the experiment with HSkMC and in the experiment on HepG2 was “inactive” throughout. For the same compound, the growth inhibition call with S. aureus RN4220 was “inactive”.
